Laboratory results published in paper PMC4336329 (PLoS ONE, 2015).
Among all 310,000 compounds or so, about 14,000 (4.5%) showed an effect of 50% or more. Effects have a minus sign here. The list shows a part of the results.

molecular target: human ether-à-go-go-related gene (hERG) potassium channel (human, UniProt Q12809); assay: primary screen, population patch clamp on CHO cells stably expressing hERG
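Further: peak tail current of the secondary pulse compared with the same well before compound.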

Chain of human ether-à-go-go-related gene (hERG) potassium channel (Q12809 whole entry, looked up): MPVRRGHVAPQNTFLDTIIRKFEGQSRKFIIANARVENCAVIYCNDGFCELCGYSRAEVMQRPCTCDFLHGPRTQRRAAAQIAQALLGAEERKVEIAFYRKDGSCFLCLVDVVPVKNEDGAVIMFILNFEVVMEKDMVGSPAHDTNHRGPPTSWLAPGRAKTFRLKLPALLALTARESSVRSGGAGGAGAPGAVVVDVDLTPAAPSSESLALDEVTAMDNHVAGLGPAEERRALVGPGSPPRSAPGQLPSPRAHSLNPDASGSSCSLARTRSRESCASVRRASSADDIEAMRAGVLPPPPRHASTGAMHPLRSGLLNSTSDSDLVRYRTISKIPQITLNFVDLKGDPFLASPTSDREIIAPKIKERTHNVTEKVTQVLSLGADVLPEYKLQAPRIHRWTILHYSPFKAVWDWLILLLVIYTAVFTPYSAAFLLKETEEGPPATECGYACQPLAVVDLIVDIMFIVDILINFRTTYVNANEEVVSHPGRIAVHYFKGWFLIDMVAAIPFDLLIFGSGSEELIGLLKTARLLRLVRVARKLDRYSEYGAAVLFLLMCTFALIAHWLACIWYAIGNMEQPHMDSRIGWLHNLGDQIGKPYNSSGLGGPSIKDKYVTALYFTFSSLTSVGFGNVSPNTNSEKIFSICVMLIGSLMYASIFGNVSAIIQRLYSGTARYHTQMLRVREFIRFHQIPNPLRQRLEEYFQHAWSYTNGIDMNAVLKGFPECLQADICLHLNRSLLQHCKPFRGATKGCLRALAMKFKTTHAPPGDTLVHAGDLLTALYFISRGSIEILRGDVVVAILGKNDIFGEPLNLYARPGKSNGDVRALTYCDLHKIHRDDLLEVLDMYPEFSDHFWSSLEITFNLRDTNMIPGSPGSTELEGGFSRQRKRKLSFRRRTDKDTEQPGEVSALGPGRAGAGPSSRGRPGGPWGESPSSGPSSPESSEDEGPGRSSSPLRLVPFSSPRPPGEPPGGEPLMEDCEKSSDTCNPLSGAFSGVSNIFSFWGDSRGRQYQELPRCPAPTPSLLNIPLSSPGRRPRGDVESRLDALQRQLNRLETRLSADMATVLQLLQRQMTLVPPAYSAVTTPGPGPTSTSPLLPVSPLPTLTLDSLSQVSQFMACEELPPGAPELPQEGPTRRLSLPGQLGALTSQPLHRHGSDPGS

SMILES	hERG current change (%, negative = inhibition) at 10uM [%]
O=C(C[n+]1ccccc1)N1c2ccccc2Sc2ccccc21.[Cl-]	20.7
C=CCc1cccc(OC)c1OCCOCCn1ccnc1.O=C(O)C(=O)O	-19.9
COC(=O)c1ccc2nc(Nc3nc4ccc(F)cc4s3)sc2c1	0.543
COC(=O)c1ccc(CSc2nc3c(cnn3-c3ccc(C)cc3)c(=O)[nH]2)o1	6.52
O=C(C(=O)N1CCN(C(=O)c2ccco2)CC1)c1c[nH]c2ccccc12	-2.67
COc1ccccc1CNC(=O)CS(=O)(=O)c1ccccc1	-26.1
Cc1ccc(S(=O)(=O)N2CCCCC2)cc1NC(=O)COC(=O)Cc1cccc2ccccc12	-40.9
CC(C)COC(=O)Cn1cnc2ccc(Br)cc2c1=O	-9.23
COc1ccc(OC)c(CCNC(=O)CCn2nc(C)c3c(C)n(-c4ccccc4)nc3c2=O)c1	18.5
CCSc1nnc(NC(=O)CCn2c(=O)oc3ccccc32)s1	14.1
CCOc1ccc(CN(C)C(=O)c2cccc(S(=O)(=O)N3CCCC3)c2)cc1OC	-27.2
CCOC(=O)C1(P(=O)(c2ccc(Cl)cc2)c2ccc(Cl)cc2)CCC1	-25.2
Cc1ccc(C(CC(=O)N2CCCC2)c2ccccc2)c(O)c1 (stereo not drawn)	4.04
COC(=O)COc1ccc(NS(=O)(=O)c2cccc([N+](=O)[O-])c2)cc1	-0.349
O=C(COC(=O)C1(c2ccc(F)cc2)CCCC1)NCc1ccco1	-2.02
Clc1ccc(OCCCCCN2CCOCC2)cc1	-37.6
O=C1NC(=O)C(=Cc2ccc(N3CCN(C(=O)c4ccccc4)CC3)c([N+](=O)[O-])c2)C(=O)N1	-67.1
O=C(NCCc1c[nH]c2ccccc12)/C(=C\c1cccnc1)NC(=O)c1ccccc1F	-58.5
COC1=C(OC)c2ccccc2C(C(=O)O)N/C1=C(/C)Nc1ccncc1 (stereo not drawn)	-7.81
O=C(CC1(O)C(=O)Nc2ccccc21)c1ccc2c(c1)OCO2 (stereo not drawn)	-3.95
C[C@H](NC(=O)c1nc[nH]c1C(=O)N[C@@H](Cc1ccccc1)C(=O)OCc1ccccc1)c1ccccc1	16.9
COc1ccc(NS(=O)(=O)c2ccc(-c3coc(C)n3)cc2)cc1OC	12.8

SMILES	hERG current change (%, negative = inhibition) at 10uM [%]
Cc1ccc(N(CC(=O)N2CCn3c2nc2ccccc23)S(=O)(=O)c2c(C)n[nH]c2C)cc1	-27.2
CCn1cnc2cc(NCc3ccc(Cl)cc3)ccc21	-68
Cc1c(C(=O)N(C)C2CCCCC2)sc2ncnc(N3CCN(c4ccccc4F)CC3)c12	-2.89
CCCN1CCN(CCCNC(=O)c2ccc(NC(=O)C3=C(C)OCCS3)cc2)CC1	1.83
Cc1cc(=O)oc2cc(OCC(=O)NC3CC(C)(C)NC(C)(C)C3)c(Cl)cc12	25.8
O=C(C1CC(c2ccc(F)cc2)=NO1)N1CCCc2ccccc21 (stereo not drawn)	-28
COC(=O)c1cc(CSc2nnc(-c3ccccc3)c(-c3ccccc3)n2)oc1C	13.1
Cc1cc(C(=O)N[C@H](c2ccccc2)[C@@]2(C)C[C@@H]2[C@@H](C)C(=O)Nc2ccc3ccccc3c2)no1	-0.526
Cc1nn(-c2ccccc2)c(C)c1NC(=O)COC(=O)c1ccccc1OC(F)F	19.4
CSc1cccc(CN2CCN(Cc3ccccc3)C(CCO)C2)c1 (stereo not drawn)	-57.7
Cc1ccc(Sc2oc(/C=N/n3cnnc3)cc2Br)cc1	4.35
CC(=O)NCCc1ccc(S(=O)(=O)Nc2ccc3c(c2)OCCO3)cc1	12.3
COc1cccc(-c2nc3ccccc3s2)c1	2.76
NC(=O)c1ccc2c(c1)OCCO2	6.04
CC(C)Oc1ccccc1C1CC(=O)Nc2cc3c(cc21)OCCO3 (stereo not drawn)	-22.4
O=C(Nc1ccc(NC(=O)c2ccccc2Cl)nc1)c1ccco1	2.09
O=C(OCC(=O)c1ccc(Cl)s1)c1ccccn1	13.9
Cl.O=C(COc1ccccc1F)NC1CCN(Cc2ccccc2)CC1	-38.5
Cc1cc(C)c(NC(=S)N(CCN(C)C)C(C)c2cccnc2)c(C)c1 (stereo not drawn)	-14.9
Cc1ccc(NC(=O)CCC(=O)NNC(=O)c2ccccc2)c(C)c1	20.7
O=C(CCC(=O)N1CCN(c2ccc(O)cc2)CC1)c1ccc(Br)cc1	-44.4
Cn1nc(C(=O)Nc2ccc(S(=O)(=O)Nc3ncccn3)cc2)ccc1=O	0.865

SMILES	hERG current change (%, negative = inhibition) at 10uM [%]
C=CCN1C(=O)C(CC(=O)Nc2ccccc2)S/C1=N/c1nccs1 (stereo not drawn)	-1.67
NC(=O)COC(=O)c1ccc(Oc2ccccc2)cc1	-2.12
CCCn1c(-c2ccc(F)cc2)n[nH]c1=S	4.33
Clc1ccc(N2CCNCC2)nn1	13.1
Cc1ccc2c(Cl)cc(Cl)c(OCC(=O)NC3CCS(=O)(=O)C3)c2n1 (stereo not drawn)	-21.2
O=C(NC(=S)N1CCCc2ccccc21)c1ccc([N+](=O)[O-])cc1	5.8
CCOC(=O)CSc1nnc(CNc2cccc(Cl)c2)n1C	9.29
Cc1nnsc1NC(=O)OCc1ccc(C(C)(C)C)cc1	7.32
Cc1ccccc1NC(=O)C1CCCN(c2ncnc3onc(-c4ccc(F)cc4)c23)C1 (stereo not drawn)	-9.58
COc1ccc2c(=O)c(-c3ccc(OC)c(OC)c3)coc2c1	-11.2
CCOC(=O)c1nc(Nc2cc(C)cc(C)c2)c2ccccc2n1	-5.78
CC(C)Oc1ccc(/C=C(/NC(=O)c2ccccc2)C(=O)NCCC(=O)O)cc1	11.3
COc1ccc(N2CCN(C(=O)CSc3nc4c(c(=O)n(C)c(=O)n4C)n3C(C)C)CC2)cc1	-50.2
O=C(CSc1nnc(COc2ccccc2F)n1-c1ccccc1)NCc1ccco1	-17.6
COc1ccc(NC(=O)CSCC(=O)NCCc2ccccn2)cc1	15.7
Cc1ccc2nc(NC(=O)CSCc3ccccc3)sc2c1	1.11
COc1ccc(CSc2nnc(C)s2)cc1F	5.4
Br.Nc1ncc([N+](=O)[O-])cc1Br	-2.75
FC(F)(F)c1cccc(-c2ccc(-c3csnn3)o2)c1	7.11
O=C1c2ccccc2C(=O)N1CCCCN(C(=O)c1ccco1)c1ccc(Cl)cc1	-55.7
O=C(Cn1c(NCCO)nc2ccccc21)NCCc1ccccc1	13.4
O=c1[nH]c(=O)n(CCc2ccc(F)cc2)c(O)c1C=NCCCN1CCOCC1	-17.7

SMILES	hERG current change (%, negative = inhibition) at 10uM [%]
CCC(C)c1ccc(NC(=O)c2cccs2)cc1 (stereo not drawn)	-3.55
N#Cc1ccccc1NC(=O)CN1CC=C(c2ccccc2)CC1	-2.67
O=C(Nc1nnc(S(=O)(=O)N2CCN(c3ccc(F)cc3)CC2)s1)c1ccccc1	-3.69
CCNC(=O)NC(=O)CSc1cccc(C(F)(F)F)c1	-7.88
CC1S/C(=N/N=C/c2ccco2)N(Cc2ccc(F)cc2)C1=O (stereo not drawn)	-11.3
COc1ccc(CCN2C(=O)CC(NNc3ccc([N+](=O)[O-])cc3)C2=O)cc1OC (stereo not drawn)	-52.8
CCOC(=O)C1=C(C)NC(SCC(=O)Nc2nc(C)cs2)=C(C#N)C1c1cccs1 (stereo not drawn)	1.13
CC1CCCN(CCOc2ccc3ccccc3c2Br)C1.O=C(O)C(=O)O (stereo not drawn)	-69
CC1=C(C(=O)OC(C)C)C(c2ccc(O)cc2)NC(=O)N1 (stereo not drawn)	15.9
O=C(Cn1cc(C(F)(F)F)cc(Cl)c1=O)Nc1cccc(Cl)c1	19.1
Cc1ccc(-c2nnc(Nc3ccc4c(c3)OCO4)c3ccccc23)cc1S(=O)(=O)NCCO	-27
O=C(c1ccccc1NS(=O)(=O)c1ccc(Br)s1)N1CCOCC1	-1.04
CCn1cc(C(=O)N2CCN(c3ccccc3OC)CC2)c2cc(OC)c(OC)cc2c1=O	-1.96
CCCOc1c(Cl)cc(C(=O)Nc2ccc3c(c2)OCO3)cc1OCC	10.1
Cc1c(/C=N\NC(=O)C2(C)CC2(Cl)Cl)cnn1C (stereo not drawn)	5.55
COc1ccccc1C(=O)NCCC(=O)NCc1cccnc1	8.13
CC(C)CNc1c2c(nc3ccccc13)CCC2.Cl	-69.2
COc1ccc([N+](=O)[O-])cc1NC(=O)Cc1noc2ccc(C)cc12	12.9
CN(C)c1ccc(C(CC(=O)c2ccccc2)C2CCCCC2=O)cc1 (stereo not drawn)	-5.11
Cc1c(OCC(=O)N2C[C@H]3C[C@@H](C2)c2cccc(=O)n2C3)ccc2c3c(c(=O)oc12)CCC3	1.16
C=CCNC(=O)c1sc(-c2ccccc2)nc1C	-4.26
